This note sets out measurements from a collection of fitness landscapes (doi:10.1126/science.1257360).

The list shows a part of the results.

To fix the notation:
B1: PhoQ; a variant is named by its letters at X, in order, P23837 (parent)
chain: MKKLLRLFFPLSLRVRFLLATAAVVLVLSLAYGMVALIGYSVSFDKTTFRLLRGESNLFYTLAKWENNKLHVELPENIDKQSPTMTLIYDENGQLLWAQRDVPWLMKMIQPDWLKSNGFHEIEADVNDTSLLLSGDHSIQQQLQEVREDDDDAEMTHSVAVNVYPATSRMPKLTIVVVDTIPVELKSSYMVWSWFIYVLSANLLLVIPLLWVAAWWSLRPIEALAKEVRELEEHNRELLNPATTRELTSLVRNLNRLLKSERERYDKYRTTLTDLTHSLKTPLXXLQXXLRSLRSEKMSVSDAEPVMLEQISRISQQIGYYLHRASMRGGTLLSRELHPVAPLLDNLTSALNKVYQRKGVNISLDISPEISFVGEQNDFVEVMGNVLDNACKYCLEFVEISARQTDEHLYIVVEDDGPGIPLSKREVIFDRGQRVDTLRPGQGVGLAVAREITEQYEGKIVAGESMLGGARMEVIFGRQHSAPKDE

This experiment covers variants of B1. Put plainly: enrichment ratio after two sorts for PhoP signalling (ratio (wild type AVST 3.29)); higher = more functional. As to conditions: with PhoP (E. coli).
As for FTWE, the enrichment ratio was not above 0.25.

Turning to GFNK, the enrichment ratio is not above 0.25.

Turning to YDWC, the enrichment ratio was not above 0.25.

With TLTT, the enrichment ratio worked out at 6.25.

In the case of QAGM, the enrichment ratio amounted to 4.7.

With EIPF, the enrichment ratio was not above 0.25.

As for FMWV, the enrichment ratio is not above 0.25.

As to YCIG, the enrichment ratio was not above 0.25.

Take SCWF: the enrichment ratio was not above 0.25.

On to LMQL, for which the enrichment ratio was not above 0.25.

Regarding SPDW, the enrichment ratio is not above 0.25.

In the case of HGMI, the enrichment ratio stood at 1.04.

Consider TRKS, for which the enrichment ratio is not above 0.25.

Take KKMT: the enrichment ratio was not above 0.25.

On to IIDM, for which the enrichment ratio is not above 0.25.

In the case of IYVK, the enrichment ratio was not above 0.25.

Consider IRNE, for which the enrichment ratio is not above 0.25.

Regarding HDME, the enrichment ratio is not above 0.25.

On to QNAT, for which the enrichment ratio is not above 0.25.

In the case of HFEI, the enrichment ratio is not above 0.25.

Consider PLEV, for which the enrichment ratio was not above 0.25.

Turning to WYRD, the enrichment ratio was not above 0.25.

Turning to VSFN, the enrichment ratio was not above 0.25.

As for EGCQ, the enrichment ratio is not above 0.25.

Turning to YLCA, the enrichment ratio is 0.507.

As to QYFD, the enrichment ratio is not above 0.25.

As for NHNI, the enrichment ratio is not above 0.25.

For the variant DLDE, the enrichment ratio was not above 0.25.

For the variant IKFC, the enrichment ratio is not above 0.25.

In the case of VYEV, the enrichment ratio was not above 0.25.

Take QMLI: the enrichment ratio is not above 0.25.

Turning to VNEA, the enrichment ratio is not above 0.25.

For the variant RFEI, the enrichment ratio is not above 0.25.

For the variant FWYR, the enrichment ratio was not above 0.25.

Regarding GKGC, the enrichment ratio is not above 0.25.

For SCPP, the enrichment ratio is not above 0.25.

Consider THMW, for which the enrichment ratio is not above 0.25.

As for VLYE, the enrichment ratio is not above 0.25.

Take DCCW: the enrichment ratio was not above 0.25.

In the case of NFND, the enrichment ratio is not above 0.25.

As to GLPN, the enrichment ratio is not above 0.25.

As for MSNF, the enrichment ratio is not above 0.25.

For the variant KYFG, the enrichment ratio is not above 0.25.

With RMAV, the enrichment ratio was not above 0.25.

Take DESM: the enrichment ratio was not above 0.25.

Regarding HDMR, the enrichment ratio was not above 0.25.

On to IPAG, for which the enrichment ratio is not above 0.25.

Consider YDTY, for which the enrichment ratio is not above 0.25.

With VYLC, the enrichment ratio was not above 0.25.

Turning to SLCM, the enrichment ratio was determined as 16.9.

Regarding MWDP, the enrichment ratio was not above 0.25.

For FAYQ, the enrichment ratio is not above 0.25.

For DHYT, the enrichment ratio was not above 0.25.

Take KTFH: the enrichment ratio is not above 0.25.

Turning to PGFM, the enrichment ratio is not above 0.25.

As for ACYG, the enrichment ratio was not above 0.25.

As for IMGK, the enrichment ratio is not above 0.25.

FEFM: the enrichment ratio turned out to be 1.67.

In the case of YFKV, the enrichment ratio was not above 0.25.

As to WGSS, the enrichment ratio was not above 0.25.

For the variant HQHN, the enrichment ratio is not above 0.25.

Regarding YTDD, the enrichment ratio is not above 0.25.

As to NTNT, the enrichment ratio was not above 0.25.

On to YRDT, for which the enrichment ratio is not above 0.25.

Regarding KFQG, the enrichment ratio is not above 0.25.

Turning to NDPF, the enrichment ratio was not above 0.25.

Regarding LRYI, the enrichment ratio is not above 0.25.

Turning to IEGH, the enrichment ratio is not above 0.25.

For the variant PKVL, the enrichment ratio is not above 0.25.

On to ILCK, for which the enrichment ratio was not above 0.25.

On to PPHK, for which the enrichment ratio is not above 0.25.

For TCFK, the enrichment ratio is not above 0.25.

For the variant MTWP, the enrichment ratio was not above 0.25.

With GKNA, the enrichment ratio was not above 0.25.

In the case of AWGM, the enrichment ratio was not above 0.25.

As for NHPS, the enrichment ratio was not above 0.25.

In the case of YDMT, the enrichment ratio was not above 0.25.

For VIRW, the enrichment ratio is not above 0.25.

As to LRTD, the enrichment ratio was not above 0.25.

As for HTQE, the enrichment ratio is not above 0.25.

With RSQH, the enrichment ratio is not above 0.25.

For WRLM, the enrichment ratio was not above 0.25.

Turning to SCVP, the enrichment ratio was not above 0.25.

Regarding ARHM, the enrichment ratio was not above 0.25.

Regarding PSFV, the enrichment ratio is not above 0.25.

As to SDFA, the enrichment ratio was not above 0.25.

Regarding ETHH, the enrichment ratio is not above 0.25.

On to GLFV, for which the enrichment ratio was not above 0.25.

Take PMAH: the enrichment ratio was not above 0.25.

With PYAN, the enrichment ratio is not above 0.25.

For ECPF, the enrichment ratio was not above 0.25.

In the case of GTFW, the enrichment ratio was not above 0.25.

GCPI: the enrichment ratio was not above 0.25.

In the case of DGFH, the enrichment ratio is not above 0.25.

With QYIH, the enrichment ratio was not above 0.25.

With PVQL, the enrichment ratio is not above 0.25.

On to PQVG, for which the enrichment ratio was not above 0.25.

Regarding SAWC, the enrichment ratio is not above 0.25.

As for KNHQ, the enrichment ratio was not above 0.25.

Consider TYMI, for which the enrichment ratio was not above 0.25.

Consider YQPP, for which the enrichment ratio was not above 0.25.

For the variant ISMR, the enrichment ratio was not above 0.25.

As for TQED, the enrichment ratio was not above 0.25.

WKDV: the enrichment ratio is not above 0.25.

GVGF: the enrichment ratio turned out to be 12.

KPDC: the enrichment ratio was not above 0.25.

Consider MEIH, for which the enrichment ratio stood at 0.72.

Regarding PNAN, the enrichment ratio is not above 0.25.

As to KHQT, the enrichment ratio is not above 0.25.

For NSCH, the enrichment ratio was not above 0.25.

PRYN: the enrichment ratio was not above 0.25.

Take WMLH: the enrichment ratio was not above 0.25.

Take LPAP: the enrichment ratio was not above 0.25.

Consider PAGM, for which the enrichment ratio was not above 0.25.

As for YFIM, the enrichment ratio was not above 0.25.

On to YAWQ, for which the enrichment ratio is not above 0.25.

Take LELD: the enrichment ratio was not above 0.25.

As for PFAA, the enrichment ratio was not above 0.25.

As to PVYW, the enrichment ratio is not above 0.25.

Regarding NLGP, the enrichment ratio was not above 0.25.

As to VIWM, the enrichment ratio was not above 0.25.

In the case of NVVM, the enrichment ratio is not above 0.25.

With HSHQ, the enrichment ratio was not above 0.25.

As to KRIL, the enrichment ratio is not above 0.25.

GGED: the enrichment ratio was not above 0.25.

As to GNHL, the enrichment ratio is not above 0.25.

Turning to KDVW, the enrichment ratio was not above 0.25.

As for GTTI, the enrichment ratio turned out to be 13.5.

Take KPVY: the enrichment ratio is not above 0.25.

Turning to IVRV, the enrichment ratio was not above 0.25.

In the case of QFLL, the enrichment ratio is not above 0.25.

Consider VNMF, for which the enrichment ratio was not above 0.25.

Turning to LVST, the enrichment ratio was not above 0.25.

With KREC, the enrichment ratio was not above 0.25.

On to KALC, for which the enrichment ratio was not above 0.25.

PPQR: the enrichment ratio is not above 0.25.

Regarding RKDP, the enrichment ratio is not above 0.25.

Regarding RLTQ, the enrichment ratio was not above 0.25.

SNAC: the enrichment ratio was 10.5.

In the case of VPQN, the enrichment ratio was not above 0.25.

On to VMLI, for which the enrichment ratio is not above 0.25.

In the case of HQAR, the enrichment ratio is not above 0.25.

On to GAII, for which the enrichment ratio amounted to 5.37.

For the variant TSHT, the enrichment ratio worked out at 3.42.

As for WIYQ, the enrichment ratio was not above 0.25.

In the case of NHPW, the enrichment ratio was not above 0.25.

Take IVWN: the enrichment ratio is not above 0.25.

Take SQFF: the enrichment ratio was 1.49.

With WIHM, the enrichment ratio is not above 0.25.

Take AAQF: the enrichment ratio was not above 0.25.

LRRI: the enrichment ratio is not above 0.25.

With VRKR, the enrichment ratio is not above 0.25.

As for PSWY, the enrichment ratio is not above 0.25.

In the case of AQNS, the enrichment ratio worked out at 2.79.

Take SFAW: the enrichment ratio was not above 0.25.

In the case of WTPG, the enrichment ratio is not above 0.25.

For GVIS, the enrichment ratio is not above 0.25.

With QQFE, the enrichment ratio was not above 0.25.

Turning to YGWG, the enrichment ratio was not above 0.25.

As to TIEY, the enrichment ratio amounted to 1.14.

As for KAQG, the enrichment ratio was not above 0.25.

As to RSPF, the enrichment ratio is not above 0.25.

For the variant KLQM, the enrichment ratio is not above 0.25.

On to QRFG, for which the enrichment ratio is not above 0.25.

With PARW, the enrichment ratio is not above 0.25.

Consider SNIR, for which the enrichment ratio is not above 0.25.

Consider RVVH, for which the enrichment ratio is not above 0.25.

For the variant SLHQ, the enrichment ratio is not above 0.25.

Turning to ECMR, the enrichment ratio was not above 0.25.

For MMTL, the enrichment ratio was found to be 13.2.

Turning to PSLI, the enrichment ratio is not above 0.25.

As to HVPD, the enrichment ratio is not above 0.25.

With FAVT, the enrichment ratio was not above 0.25.

As for YMKL, the enrichment ratio was not above 0.25.

Turning to TRCK, the enrichment ratio is not above 0.25.

With VYWE, the enrichment ratio was not above 0.25.

Take RAMQ: the enrichment ratio was not above 0.25.

As for IKFP, the enrichment ratio was not above 0.25.

With EIWF, the enrichment ratio was not above 0.25.

Regarding DTAR, the enrichment ratio was not above 0.25.

Consider PAYW, for which the enrichment ratio was not above 0.25.

LQHK: the enrichment ratio was not above 0.25.

With TAPP, the enrichment ratio was not above 0.25.

On to SWHT, for which the enrichment ratio is not above 0.25.

On to KGAF, for which the enrichment ratio is not above 0.25.

On to EFHD, for which the enrichment ratio is not above 0.25.

As for PNVY, the enrichment ratio was not above 0.25.

As to IRII, the enrichment ratio was not above 0.25.

Regarding GAFS, the enrichment ratio was not above 0.25.

As for YTYE, the enrichment ratio is not above 0.25.

Take LRDV: the enrichment ratio is not above 0.25.

With HRWT, the enrichment ratio was not above 0.25.

For the variant VAWT, the enrichment ratio was not above 0.25.

LEPM: the enrichment ratio is not above 0.25.

For VKEL, the enrichment ratio is not above 0.25.
